We go through 96 molecules from PubChem BioAssay AID485344 (National Center for Advancing Translational Sciences (NCATS), 2010).

SMILES strings stand for the structures. The whole screen tested about 340,000 compounds, of which about 6,900 (2%) were called active. Cut-off read from the data, not from the text of the source: active = inhibition above about 30%; inactive = below that, where a call was filed. The entries are a selection whose mix differs from that of the whole data set. Where no call is shown, the source filed none.

UniProt P14416, sequence (P14416 whole entry, looked up): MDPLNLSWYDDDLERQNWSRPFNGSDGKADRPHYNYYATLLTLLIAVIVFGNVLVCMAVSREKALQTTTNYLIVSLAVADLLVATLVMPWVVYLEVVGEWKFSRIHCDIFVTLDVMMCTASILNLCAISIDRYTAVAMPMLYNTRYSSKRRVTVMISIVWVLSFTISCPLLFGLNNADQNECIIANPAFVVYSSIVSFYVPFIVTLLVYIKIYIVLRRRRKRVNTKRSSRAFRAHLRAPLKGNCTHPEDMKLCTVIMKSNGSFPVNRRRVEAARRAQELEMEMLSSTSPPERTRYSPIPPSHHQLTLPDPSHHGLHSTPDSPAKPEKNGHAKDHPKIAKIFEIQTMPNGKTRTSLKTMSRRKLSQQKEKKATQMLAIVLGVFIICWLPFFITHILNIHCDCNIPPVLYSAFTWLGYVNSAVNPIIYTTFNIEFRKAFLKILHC

This assay deals with D(2) dopamine receptor (Homo sapiens) (UniProt P14416). Briefly: HTS Assay for Allosteric Antagonists of the Human D2 Dopamine Receptor: Primary Screen for Antagonists. Note: 0% is about no effect. Conditions: HEK293 TREx D2 cells, calcium flux, dopamine EC80; at 10 µM; stronger effect = higher value. An outline of the steps:
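Dopamine at EC80 is the agonist stimulus; test compounds precede it by 180 s. Calcium flux read kinetically in a force-coupled, inducible HEK293 T-REx D2 cell line.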
Regarding `Cc1ccc(-c2cc(C(F)(F)F)n3nc(C(=O)NCC45CC6CC(CC(C6)C4)C5)cc3n2)cc1`, the inhibition stood at 14.3%.
For `Clc1ccccc1CSc1nc2ccncc2[nH]1` the value was active: 32.3%; for `CCc1cc2c(cc3c(=O)n(CC(=O)NC4CCC(C)CC4)ncn32)s1` (stereo unspecified), -6.55%; for `COc1cc2nc(NCc3ccc(C)cc3)n3nc(-c4ccccc4)nc3c2cc1OC`, 10%.
On to `Cc1ccc(NC(=O)c2ccc(-n3c(C)nnc3C)cc2)cc1F`, for which the inhibition turned out to be 2.91%.
Turning to `CCCCC(=O)Nc1ccc2c(c1)nc(CCN1CCN(c3ccccn3)CC1)n2C`, the inhibition was active: 51%.
For `CCc1ccccc1NC(=O)C1CCCN(C(=O)c2cnn(-c3ccccc3)c2-n2cccc2)C1` (stereo unspecified) the value was 7.38%; for `CCOC(=O)c1c(-c2ccc(C)cc2)csc1NC(=O)c1nc(SC(C)C)ncc1Cl`, -10%.
For `O=C(c1cccs1)N1CCN(Cc2ccccn2)CC1` the value was active: 52.5%; for `CCCc1nc(SCc2cc(=O)c3ccc(C)c(C)c3[nH]2)n[nH]1`, -18.9%; for `CCC(C(=O)NCCc1ccccc1)n1nc(C)n2c(cc3sccc32)c1=O` (stereo unspecified), -10.3%.
With `COc1ccc(S(=O)(=O)N2CCN(Cc3nc4ccc(C)cc4o3)CC2)cc1Cl`, the inhibition came to 3.25%.
For `CCN(CC)CCNC(=O)c1ccc2c(=O)n3nc(Nc4ccccc4OC)sc3nc2c1` the value was -6.28%; for `CCOc1ccc(-c2nc(CSCC(=O)NCc3ccc(Cl)cc3)c(C)o2)cc1`, -9.87%.
In the case of `COc1cccc(CNC(=O)C2CCN(c3nnc(-n4c(C)ccc4C)s3)CC2)c1OC` it was 5.66%; in that of `O=S1(=O)c2ccccc2N(Cc2cccc(Cl)c2)c2ccccc21`, 10.3%; in that of `CC(=O)c1cc2c(cc1N/C(=N/S(=O)(=O)c1ccc(C)cc1)c1ccc(F)cc1)OCO2`, 24.1%.
As to `COc1ccc(CCNC(=O)c2ccc3c(c2)ncn3-c2ccc(C)cc2C)cc1OC`, the inhibition is -10.8%.
As to `CCc1ccc(S(=O)(=O)c2nnn3c2nc(NC(C)C)c2sccc23)cc1`, the inhibition was found to be 4.13%.
Consider `Cc1c(C(=O)N2CCN(c3ccccc3)CC2)sc2nc3n(c(=O)c12)CCC3`, for which the inhibition came to 16.4%.
With `COc1ccc(CCNC(=O)CS(=O)Cc2nc(-c3ccccc3F)oc2C)cc1OC` (stereo unspecified), the inhibition was -15.7%.
As for `COc1cc(NC(=O)CSc2ncccc2C(=O)OC(C)C)cc(OC)c1`, the inhibition came to 12.6%.
Regarding `Fc1cccc(CSc2ncnc3c2oc2ccccc23)c1`, the inhibition is active: 30.5%.
Consider `Cc1cc(C(=O)NCc2ccccc2Cl)c2c(C)nn(-c3ccccc3)c2n1`, for which the inhibition is -1.06%.
For `O=C(COC(=O)CCNS(=O)(=O)c1ccccc1)NC(=O)Cc1ccccc1`, the inhibition is active: 36.6%.
With `CCN1C(C(=O)c2ccccc2)=C(OC(=O)c2ccccc2OC)c2ccccc2S1(=O)=O`, the inhibition was -2.21%.
As for `COc1ccc(OCCCC(=O)NNC(=O)CCN2CCN(c3ccccc3)CC2)cc1`, the inhibition is active: 70.9%.
For `CC(=O)c1ccc(N2CCN(S(=O)(=O)c3ccc4c(c3)C(C)(C)C(=O)N4)CC2)cc1` the value was 8.85%.
For `Oc1ccccc1-c1nc(/C=C/c2ccc(F)cc2)nn1-c1ccccc1` the value was -0.54%.
For `CCCn1c2ccccc2c2cnn(CC(=O)N(CCCOC)Cc3ccco3)c(=O)c21` the value was 20.4%.
On to `COc1cccc(/C=C/C(=O)Nc2ccc3nc(N4CCN(C)CC4)cc(C)c3c2)c1OC`, for which the inhibition was -4.42%.
For `CCOc1ccc(NC(=O)CSc2ncc3c(n2)-c2ccccc2N(Cc2ccccc2C)S3(=O)=O)cc1` the value was 4.45%; for `O=C(NC1CCCC1)c1ccc(CSc2nc3cccnc3n2Cc2ccc(F)cc2)cc1`, -3.5%.
For `CC(C)c1nc2ccc(C(=O)NC(C)c3ccccc3)cc2o1` (stereo unspecified), the inhibition turned out to be 14.1%.
In the case of `O=C(Nc1ccc(N2CCOCC2)cc1)c1ccc(Br)o1` it was active: 71.2%.
For `CCc1ccccc1N1CC(c2nc3ccccc3n2CCCCOc2ccccc2)CC1=O` (stereo unspecified), the inhibition was 0.892%.
Take `Fc1ccc(Nc2nc3ccccc3s2)cc1`: the inhibition is active: 32.8%.
Turning to `COc1cc(-c2nc3nc(C)cc(C)n3c2Nc2ccc(Cl)cc2)ccc1O`, the inhibition was -11.1%.
On to `COc1ccc(C(=O)Nc2ccc(-c3nnc4n3CCCCC4)cc2)cc1OC`, for which the inhibition stood at 12.4%.
`COC(=O)c1cccc(-n2c(CCC(=O)O)ccc2-c2cccs2)c1`: the inhibition is -21.4%.
For `O=C(c1cc2ccc3cccnc3c2[nH]1)N1CCN(c2ccccc2)CC1`, the inhibition worked out at 0.606%.
As to `COc1ccc(Cn2c(C(=O)O)c(CNCc3ccc(C)o3)c3ccc(C)cc32)cc1`, the inhibition amounted to 2.45%.
In the case of `Cc1ccsc1C(=O)C1CCCN(Cc2cc(F)ccc2-n2cccn2)C1` (stereo unspecified) it was active: 34%.
`CC(=O)N1CCc2nc3sc(C(=O)Nc4ccc(Cl)cc4F)c(N)c3c(C(F)(F)F)c2C1`: the inhibition was -4.82%.
For `Cc1cc2oc(=O)cc(CSc3nnc(-c4cccs4)o3)c2cc1C(C)C` the value was active: 36.4%; for `COc1ccc(CCNC(=O)C(=O)NCC(c2ccco2)S(=O)(=O)c2cccs2)cc1OC` (stereo unspecified), -10.2%.
Turning to `CCC(=O)N1CCc2cc(S(=O)(=O)NC(CC(C)C)C(=O)NCCc3ccccc3)ccc21` (stereo unspecified), the inhibition is -12.6%.
In the case of `O=C(c1nc(-c2ccc(Cl)cc2)n2c1CCCCC2)N1CCN(c2ccccc2)CC1` it was -7.71%; in that of `CCOC(=O)c1c(-c2ccccc2)oc2ccc(N(C(C)=O)S(=O)(=O)c3ccc(CC)cc3)cc12`, -10.1%; in that of `OC(CCN1CCCCC1)(c1ccccc1)C1CCCCC1` (stereo unspecified), active: 46.4%.
With `O=C(COc1ccccc1-c1nc(-c2ccccc2)no1)Nc1cccc([N+](=O)[O-])c1`, the inhibition is -17.3%.
In the case of `O=C(COc1ccc(Cl)cc1)Nc1ccc2nc(SCC(=O)N3CCCC3)sc2c1`, the inhibition is -0.474%.
For `Cc1nn(C(=O)c2cccc(Cl)c2)c(C)c1S(=O)(=O)N1CCOCC1` the value was 14.1%; for `CCn1c(=O)cc(SCC(=O)NCc2ccc(OC)cc2OC)c2ccccc21`, 0.211%; for `COC(=O)c1cc2oc3ccccc3c2n1CC(=O)Nc1ccc(Cl)cc1F`, -5.87%.
For `COc1cccc(-n2c(SCC(=O)Nc3c(C)cc(C)cc3C)nc3c([nH]c4ccccc43)c2=O)c1` the value was 10.7%.
`COc1cccc2c1cc1c(=O)n(CC(=O)NCc3ccc(C)o3)nc(C)n12`: the inhibition was determined as 9.97%.
As to `Cc1ccc(CCNC(=O)c2cc3c(s2)-c2c(C)cccc2OC3)cc1`, the inhibition was -7.69%.
On to `COc1cccc(CNC(=O)c2ccc(-c3nc(COc4ccccc4)c(C)o3)cc2)c1`, for which the inhibition was -0.424%.
In the case of `CCc1ccc(N2CCN(CCNC(=O)Nc3ccccc3)CC2)cc1` it was active: 73.5%.
For `CCOc1ccc(C2CC(c3c(O)n(C4CCCCC4)c(=O)[nH]c3=O)=Nc3ccccc3S2)cc1` (stereo unspecified) the value was -8.95%.
On to `Cc1ccc2nc(COc3ccccc3NC(=O)C(C)(C)C)cc(=O)n2c1`, for which the inhibition is -11.7%.
For the molecule `Cc1ccc(NS(=O)(=O)c2ccc(-n3cccn3)cc2)cc1Cl`, the inhibition was -0.568%.
In the case of `O=C(CSc1nnc2ccc3ccccc3n12)Nc1ccccc1Cl` it was -8.8%.
Consider `O=C(Cc1ccc(F)cc1)NCc1ccc2c(c1)CCN2C(=O)c1ccc(F)cc1`, for which the inhibition is -6.27%.
In the case of `CCOC(=O)N1CCc2c(sc3c2c(=O)n(-c2ccccc2C(F)(F)F)c(=O)n3Cc2ccccc2C)C1`, the inhibition was -0.531%.
With `Cc1nn(-c2ccc(F)cc2)c(-n2cccc2)c1C(=O)NCCc1ccc(Cl)cc1`, the inhibition was -0.0679%.
`Cc1cc(C)n2nc(CNS(=O)(=O)c3ccc(C)c(C)c3)nc2n1`: the inhibition amounted to 13.1%.
For `COc1ccc(NC(=O)CSc2nc3nc(C)c(Cc4ccccc4)c(C)n3n2)cc1OC`, the inhibition was determined as 22.8%.
In the case of `O=C(C1CCN(S(=O)(=O)c2cccc3nonc23)CC1)N1CCN(c2cccc(Cl)c2)CC1`, the inhibition is 20.7%.
For `Nc1nc(SCC(=O)Nc2ccc(Cl)cc2)[nH]c(=O)c1-c1ccccc1` the value was active: 35.6%; for `CCc1ccc(NC(=O)CN2C(=O)C(c3ccc(C)cc3)=NC23CCCCC3)cc1`, -4.73%.
For `CCc1ccc(CNC(=O)Cn2nc(C)n3c(cc4cc(C)ccc43)c2=O)cc1` the value was 19.4%; for `Cc1cccc(Cn2cccc2CNS(=O)(=O)c2ccccc2F)c1`, -4.76%; for `COc1ccc(NC(=O)C(Cc2ccccc2)NS(=O)(=O)c2ccc3c(c2)CCC(=O)N3)c(OC)c1` (stereo unspecified), -6.49%.
In the case of `CCOc1ccccc1CNC(=O)C1CCN(c2nnc(-n3c(C)ccc3C)s2)CC1` it was -2.75%; in that of `CCCCOc1ccc(C2=NC(c3ccncc3)=Nc3ccc(OCC)cc3N2)cc1`, 3.18%; in that of `Cc1cc(C)n(CCCNC(=O)C(C)(C)Oc2ccc(Cl)cc2)n1`, active: 30.7%.
As to `O=C(Cn1c(=O)n(CC2CCC(C(=O)NCCc3ccccc3)CC2)c(=O)c2ccccc21)Nc1ccccc1` (stereo unspecified), the inhibition stood at 2.76%.
In the case of `COc1ccc2sc(N(Cc3cccnc3)C(=O)C3CCCCC3)nc2c1` it was -9.59%; in that of `CCOC(=O)c1cccc(NC(=O)c2cc3ccccn3n2)c1`, -1.14%.
With `Cc1ccc(C)c(N2CCN(C(=O)c3cc4c(=O)n(Cc5ccccc5)ccc4nc3C)CC2)c1`, the inhibition was 6.62%.
On to `Cc1ccc2c(c1)N(C(=O)N1CCC(C(=O)NCCc3ccc(Cl)cc3)CC1)CC(C)O2` (stereo unspecified), for which the inhibition was -9.68%.
For `Cc1cccc(NS(=O)(=O)c2ccc3[nH]c4c(c3c2)CCCCCC4)c1` the value was 0.164%; for `CCOc1cccc2c1N[C@@H](c1ccc(C(=O)O)cc1)[C@H]1CC=C[C@@H]21`, 7.57%; for `Cc1ccc(-n2nc(C)c3c(C)c(CCC(=O)NCc4ccccc4Cl)c(C)nc32)cc1C`, 5.41%.
For `COc1cc(OC)cc(C(=O)Nc2ccc([N+](=O)[O-])cn2)c1` the value was active: 50.2%.
Regarding `CCOC(=O)c1cc(-c2ccc(F)cc2)n(CC(=O)NC2CCCCCC2)c1C`, the inhibition is -6.43%.
Turning to `COc1ccc(NC(=O)c2c(NC(=O)COc3ccccc3)sc3c2CCC(C(C)(C)C)C3)cc1` (stereo unspecified), the inhibition was 4.06%.
In the case of `Cc1ccc(CN(Cc2ccco2)C(=O)c2ccc(OCC(C)C)cc2)cc1` it was -16.9%; in that of `CCCCN1CCc2nc(Nc3ccc(OC)cc3OC)ncc2C1`, -10.8%.
On to `CC(C)c1nn2c(=O)cc(COC(=O)c3ccc(NC(=O)C4CCCCC4)cc3)nc2s1`, for which the inhibition was -3.47%.
In the case of `COc1ccc2[nH]c3c(c2c1)CCN(C(=O)c1cccc(Cl)c1)C3c1ccc(F)cc1` (stereo unspecified), the inhibition worked out at 5.29%.
For `Cc1ccc(S(=O)(=O)N2CCCc3cc(NS(=O)(=O)c4cc(C)ccc4C)ccc32)cc1` the value was 19%; for `COc1ccc(-c2cc(-c3ccccc3)nc3c2COc2ccc(F)cc2-3)cc1`, -7.74%.
In the case of `CCN(CC)C(=O)Cn1c(=O)cc(C)c2c(C)nn(-c3ccc(C)cc3)c21` it was 24.8%.
